Experimental data reported in PubChem BioAssay AID504339 (National Center for Advancing Translational Sciences (NCATS), 2011).
About 17,000 (4.4%) of roughly 390,000 compounds were called active. Inconclusive means that the source gave no clear call. Such entries were picked first, then a sample of the others. The call rests on the fitted dose curve; in most records, active means well fitted inhibition curve with a large enough effect; inconclusive means small, poorly fitted or top-dose-only effect; inactive means no such curve, though single readings can be large or run the other way. Where the call is inconclusive, the potency comes from a doubtful curve fit.

What follows are compounds tested against Lysine-specific demethylase 4A (Homo sapiens) (UniProt O75164) (assay: qHTS Assay for Inhibitors of JMJD2A-Tudor Domain). Conditions: AlphaScreen JMJD2A-Tudor / H3K4me3 peptide binding; activity change, negative = inhibition: at 114 µM (top of the series).
Further: nearly all actives have a fitted effect of over 50% in size.
On the % scale 0 is the no-effect control and ±100 the full control effect; potency means the concentration at half of the fitted maximal effect; tags describe the fitted curve by direction and shape.

Chain of UniProt O75164 (O75164 whole entry, looked up, the tested form may be a part): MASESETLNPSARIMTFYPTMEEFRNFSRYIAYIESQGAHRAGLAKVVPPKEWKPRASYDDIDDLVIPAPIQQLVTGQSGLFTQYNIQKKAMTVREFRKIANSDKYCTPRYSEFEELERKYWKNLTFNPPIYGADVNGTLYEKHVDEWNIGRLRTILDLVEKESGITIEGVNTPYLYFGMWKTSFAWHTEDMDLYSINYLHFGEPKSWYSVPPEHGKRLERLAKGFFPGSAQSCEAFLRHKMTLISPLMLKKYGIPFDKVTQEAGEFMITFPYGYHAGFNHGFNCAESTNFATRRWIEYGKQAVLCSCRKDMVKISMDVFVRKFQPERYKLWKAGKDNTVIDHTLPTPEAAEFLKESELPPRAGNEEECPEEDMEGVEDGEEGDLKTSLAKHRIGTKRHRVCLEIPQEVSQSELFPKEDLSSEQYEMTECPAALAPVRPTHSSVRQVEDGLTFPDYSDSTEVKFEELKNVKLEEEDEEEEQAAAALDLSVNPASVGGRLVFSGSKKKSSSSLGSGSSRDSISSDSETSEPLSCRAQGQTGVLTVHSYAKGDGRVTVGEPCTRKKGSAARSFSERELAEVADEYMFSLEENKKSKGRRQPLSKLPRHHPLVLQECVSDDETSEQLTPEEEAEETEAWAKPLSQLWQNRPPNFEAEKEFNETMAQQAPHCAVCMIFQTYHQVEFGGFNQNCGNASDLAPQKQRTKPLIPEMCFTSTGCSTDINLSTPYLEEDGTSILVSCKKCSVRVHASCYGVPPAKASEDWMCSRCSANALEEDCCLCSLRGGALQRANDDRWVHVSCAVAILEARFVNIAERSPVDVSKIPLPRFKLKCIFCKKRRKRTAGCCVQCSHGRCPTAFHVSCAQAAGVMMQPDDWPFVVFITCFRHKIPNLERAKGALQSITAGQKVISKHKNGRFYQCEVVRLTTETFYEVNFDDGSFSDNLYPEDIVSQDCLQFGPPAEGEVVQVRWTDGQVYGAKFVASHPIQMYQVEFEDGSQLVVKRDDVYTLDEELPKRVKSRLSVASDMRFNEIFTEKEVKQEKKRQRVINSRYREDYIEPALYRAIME

Potency, active:
COC(=O)c1ccc(C(=O)O)nc1 12.6 µM
COc1ccc(CC(CC(=O)O)C(=O)Nc2ccc(Cl)c(Cl)c2)cc1 (stereo unspecified) 8.91 µM
COc1cccc(CNc2ccc3[nH]c(=O)[nH]c3c2)c1OCc1ccccc1F 44.7 µM
COc1ccc(-c2cc(=O)c3c(O)cc(O[C@@H]4O[C@H](CO[C@@H]5O[C@@H](C)[C@H](O)[C@@H](O)[C@H]5O)[C@@H](O)[C@H](O)[C@H]4O)cc3o2)cc1O 20 µM
CCN1C(=O)/C(=C\c2ccncc2)SC1=Nc1ccc(C)c(C)c1 50.1 µM
CCOc1ccc(/C=C2\SC(=S)N(CCC(=O)Nc3cccc(C(=O)O)c3)C2=O)cc1 35.5 µM
COC(=O)CCSc1nccn1Cc1ccccc1 35.5 µM
O=C(c1ccc([N+](=O)[O-])s1)N1CCN(c2cccc(Cl)c2)CC1 44.7 µM
CCc1cc2c3c(c1)C(C)CC(C)(C)N3C(=O)/C2=C1\SC(=O)NC1=O (stereo unspecified) 50.1 µM
CC(c1ccccc1)n1c(-c2ccccc2F)n[nH]c1=S (stereo unspecified) 22.4 µM
O=[N+]([O-])c1ccc(NNC(=S)Nc2ccc(F)cc2)cc1 50.1 µM

Potency, inconclusive:
Cc1ccc(S(=O)(=O)Oc2ccccc2/C=N/Nc2ccc(C(=O)O)cc2)cc1 44.7 µM [inhibitor, full curve, poor fit]
CCOc1ccc(-c2nn(-c3ccccc3)cc2/C=C2\SC(=S)N(Cc3ccco3)C2=O)cc1 12.6 µM [inhibitor, partial curve, poor fit]
OCCN(CC(O)Cn1ccc2ccccc21)CC(O)Cn1ccc2ccccc21 (stereo unspecified) 79.4 µM [inhibitor, partial curve]
CCn1c(Cc2ccccc2)n[nH]c1=S 8.91 µM [inhibitor, partial curve, poor fit]
COc1ccccc1CNC(=O)CCNS(=O)(=O)c1cc(Br)cnc1N 14.1 µM [inhibitor, full curve, poor fit]
O=C1NC(c2ccccc2Br)=N/C1=C\c1ccco1 50.1 µM [inhibitor, partial curve]
CN(C)CCNc1ncnc2ccc(-c3ccc4c(c3)OCO4)cc12 3.55 µM [inhibitor, full curve, poor fit]
N/C(=N\O)c1ccc(NC(=O)c2ccc(Br)o2)cc1 39.8 µM [inhibitor, single point]
Cc1ccc(C)c(NC(=S)NCCc2c[nH]c3ccccc23)c1 79.4 µM [inhibitor, partial curve]
O=C(NCCCN1CCCCCC1)c1ccc2c(Cl)c3c(nc2c1)CCCC3 50.1 µM [inhibitor, partial curve]
COc1cccc(C(=O)/C(C#N)=N/Nc2cccc(-c3ccnc(C)n3)c2)c1 50.1 µM [inhibitor, partial curve]
COc1cccc(N2CCN(C(=O)c3cnn(-c4ccccc4Cl)c3C3CCN(C(=O)OC(C)(C)C)CC3)CC2)c1 50.1 µM [inhibitor, partial curve]
CC(=O)c1ccc(NS(=O)(=O)c2cc3c(cc2C)N(C)CCO3)cc1 20 µM [inhibitor, full curve]
O=c1oc2ccccc2c(Nc2cccc3ccccc23)c1[N+](=O)[O-] 56.2 µM [inhibitor, partial curve, poor fit]
COC(=O)c1sccc1NC(=O)C1C2C=CC(O2)C1C(=O)O (stereo unspecified) 89.1 µM [inhibitor, single point]
Fc1ccc(N2CCN(C(=S)NCc3ccco3)CC2)cc1 100 µM [inhibitor, partial curve]
Cc1ccc(C(=O)N/N=C/c2c(O)ccc3ccccc23)cn1 2.82 µM [inhibitor, full curve, poor fit]
Cc1[nH]c2ccc(C(=O)N3CCN(Cc4ccccc4)CC3)cc2c1C 15.8 µM [inhibitor, full curve, poor fit]
CCOC(=O)C1=C(C)n2c(s/c(=C3\C(=O)Nc4ccccc43)c2=O)=NC1c1ccc(OC)cc1 (stereo unspecified) 8.91 µM [inhibitor, partial curve]
CCOC(=O)Cc1ccc(NC(=O)NC(C)c2c(-n3cccc3)sc(C)c2C)cc1 (stereo unspecified) 3.55 µM [inhibitor, partial curve]

Potency, inactive:
Cc1cc(NC(=O)CSc2ncc(C(=O)O)n2-c2ccc(F)cc2)no1
COc1ccc([C@@H]2[C@H]3CN(C(C)=O)CC=C3C(C#N)=C(N)C2(C#N)C#N)c2ccccc12
CCCS(=O)(=O)c1c(S(=O)(=O)CCC)c2c(N)cccn2c1C(=O)OC
CC(=O)c1ccc(NC(=O)CSc2nc(=O)n(Cc3ccccn3)c3c2CCC3)cc1
COc1ccc(C(=O)n2cnc3ccccc32)cc1[N+](=O)[O-]
N#Cc1ccc(/C=C/C(=O)c2cccnc2)cc1
COc1ccccc1C(O)c1nccn1C (stereo unspecified)
COc1ccccc1NC(=O)CN1C(=O)C(c2ccc(F)cc2)=NC12CCCCC2
COc1ccc(/C=N/NC(=O)c2cccc([N+](=O)[O-])c2)cc1OS(=O)(=O)c1ccc(C)cc1
CCn1nc(C)c2c(-c3ccccc3)cc(=O)n(C(C)C(=O)NCCc3ccc(Cl)cc3)c21 (stereo unspecified)
CCOc1ccc(NC(=O)CCCn2c(C)c3cnn(-c4ccccc4)c(=O)c3c2C)cc1
COc1ccc(OC)c(NC(=O)CSC2=Nc3ccccc3C3=NC(CC(=O)NCCc4ccccc4)C(=O)N23)c1 (stereo unspecified)
Cc1ccc(C(=O)c2c3ccc([N+](=O)[O-])cc3[n+]([O-])n2CCC(N)=O)cc1
Cc1cccc(NC(=S)N2CCOCC2)c1C

Activity change, negative = inhibition, inactive:
O=C(CCl)NCCNC(=O)c1cc(OCC(F)(F)F)ccc1OCC(F)(F)F -18% [at 11.4 µM]
